Patent US20170114151A1 (AstraZeneca / MedImmune, published 2017)

Tests used:
Human C1q = biological target: T1, Human C1q (human, UniProt P02745; P02746; P02747); assay: ELISA, antibody coated, human C1q titrated
T1 construct: Human C1q was bought from Cell Sciences (catalog number CRC 162B)

EGFR-Fc = biological target: T2, EGFR-Fc (UniProt P00533 fragment, limits assumed); assay: BIAcore, biMab-EI immobilized, co-inject of antigens
T2 construct: It is named EGFR-Fc only in the methods paragraph and EGFR elsewhere; not shown: Fc part

[1] = biological target: T3, EGFR (epidermal growth factor receptor), immobilized in ELISA (UniProt P00533 fragment, limits assumed); assay: ELISA, EGFR coated
T3 construct: Antigen coated on ELISA wells; also called EGF receptor
Procedure: The absorbance at 450 nm was measured using a microtiter plate reader.

Human C1q, sequence (P02745 23-245 limits assumed, chain 1 of 3): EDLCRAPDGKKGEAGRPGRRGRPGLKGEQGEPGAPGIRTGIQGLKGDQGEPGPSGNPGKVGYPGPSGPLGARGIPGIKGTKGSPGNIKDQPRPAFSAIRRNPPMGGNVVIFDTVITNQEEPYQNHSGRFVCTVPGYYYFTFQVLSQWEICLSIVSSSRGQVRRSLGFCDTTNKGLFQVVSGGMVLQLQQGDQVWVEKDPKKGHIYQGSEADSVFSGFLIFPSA
Human C1q, sequence (P02746 28-253 limits assumed, chain 2 of 3, further chain): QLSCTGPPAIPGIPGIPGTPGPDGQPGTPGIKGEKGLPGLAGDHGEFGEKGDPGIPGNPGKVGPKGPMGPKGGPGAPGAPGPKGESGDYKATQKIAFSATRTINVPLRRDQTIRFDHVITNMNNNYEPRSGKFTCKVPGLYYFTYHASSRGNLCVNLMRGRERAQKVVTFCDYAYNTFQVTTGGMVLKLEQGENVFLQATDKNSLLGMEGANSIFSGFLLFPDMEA
Human C1q, sequence (P02747 29-245 limits assumed, chain 3 of 3, further chain): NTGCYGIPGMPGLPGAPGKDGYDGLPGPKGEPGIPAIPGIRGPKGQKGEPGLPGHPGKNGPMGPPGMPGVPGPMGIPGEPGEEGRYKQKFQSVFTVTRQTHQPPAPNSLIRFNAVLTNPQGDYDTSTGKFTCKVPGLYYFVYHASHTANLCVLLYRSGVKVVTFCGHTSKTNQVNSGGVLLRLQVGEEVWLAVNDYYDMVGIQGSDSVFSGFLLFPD

binding result (Human C1q): binds | binding result (EGFR-Fc): binds | binding result [1]: binds
B1: biMab-EI (PaniX/Dalo) (bispecific antibody)
heavy: QVQLQESGPGLVKPSETLSLTCTVSGGSVSSGDYYWTWIRQSPGKGLEWIGHIYYSGNTNYNPSLKSRLTISIDTSKTQFSLKLSSVTAADTAIYYCVRDRVTGAFDIWGQGTMVTVSSASTKGPSVFPLAPSSKSTSGGTAALGCLVKDYFPEPVTVSWNSGALTSGVHTFPAVLQSSGLYSLSSVVTVPSSSLGTQTYICNVNHKPSNTKVDKRVEPKSCGKTGGGGSGGGGSDIVMTQSPLSLPVTPGEPASISCRSSQSIVHSNGNTYLQWYLQKPGQSPQLLIYKVSNRLYGVPDRFSGSGSGTDFTLKISRVEAEDVGVYYCFQGSHVPWTFGCGTKVEIKGGGGSGGGGSGGGGSGGGGSQVQLQESGPGLVKPSETLSLTCTVSGYSITGGYLWNWIRQPPGKCLEWIGYISYDGTNNYKPSLKDRVTISRDTSKNQFSLKLSSVTAADTAVYYCARYGRVFFDYWGQGTLVTVSSGGGGSGGGGS[left out - human IgG1 Fc]
light: DIQMTQSPSSLSASVGDRVTITCQASQDISNYLNWYQQKPGKAPKLLIYDASNLETGVPSRFSGSGSGTDFTFTISSLQPEDIATYFCQHFDHLPLAFGGGTKVEIKRTVAAPSVFIFPPSDEQLKSGTASVVCLLNNFYPREAKVQWKVDNALQSGNSQESVTEQDSKDSTYSLSSTLTLSKADYEKHKVYACEVTHQGLSSPVTKSFNRGEC
notes: IgG1 Fc; also called anti-EGFR/IGF1R biMab
